Patent US11685745B2, “Substituted benzoxazole and benzofuran compounds as PDE7 inhibitors” (Dart NeuroScience, LLC, priority 2017, dated 2023)

These compounds were tested against T1, N-terminal truncated recombinant human PDE7B enzyme (Homo sapiens (Human), UniProt Q9NP56) (assay: PDE7 inhibition, IMAP TR-FRET enzymatic assay using PDE7B). Conditions: negative log of half-maximal molar inhibitory concentration, recombinant human PDE7B (91-450aa), 50 nM FAM-cAMP.

SMILES	PDE7b (pIC50)
Cc1nc2cc(Cl)c3c(c2o1)C1(CCC(C)(C)CC1)NC(=O)N3 [Example 12, 5-Chloro-2,4′,4′-trimethyl-7,8-dihydro-6H-spiro[[1,3]oxazolo[5,4-f]quinazoline-9,1′-cyclohexane]-7-one]	<6
O=C1Nc2c(Cl)cc3nc(CN4CCNCC4)oc3c2C2(CCCCC2)N1 [Example 37, 5-Chloro-2-(piperazin-1-ylmethyl)-7,8-dihydro-6H-spiro[[1,3]oxazolo[5,4-f]quinazoline-9,1′-cyclohexane]-7-one]	>8
O=C1Nc2c(Cl)cc3nc(CNCC(F)(F)F)oc3c2C2(CCCCC2)N1 [Example 43, 5-Chloro-2-{[(2,2,2-trifluoroethyl)amino]methyl}-7,8-dihydro-6H-spiro[[1,3]oxazolo[5,4-f]quinazoline-9,1′-cyclohexane]-7-one]	>8
O=C1Nc2c(Cl)cc3nc(CN4CCC5(CCOC5=O)CC4)oc3c2C2(CCCCC2)N1 [Example 64, 5-Chloro-2-({1-oxo-2-oxa-8-azaspiro[4.5]decan-8-yl}methyl)-7,8-dihydro-6H-spiro[[1,3]oxazolo[5,4-f]quinazoline-9,1′-cyclohexane]-7-one]	>8
CN(CC(=O)N(C)C)Cc1nc2cc(Cl)c3c(c2o1)C1(CCCCC1)NC(=O)N3 [Example 79, 2-({5-Chloro-7-oxo-7,8-dihydro-6H-spiro[[1,3]oxazolo[5,4-f]quinazoline-9,1′-cyclohexane]-2-ylmethyl}(methyl)amino)-N,N-dimethylacetamide]	>8
CN(CCC(=O)N(C)C)Cc1nc2cc(Cl)c3c(c2o1)C1(CCCCC1)NC(=O)N3 [Example 123, 3-({5-Chloro-7-oxo-7,8-dihydro-6H-spiro[[1,3]oxazolo[5,4-f]quinazoline-9,1′-cyclohexane]-2-ylmethyl}(methyl)amino)-N,N-dimethylpropanamide]	>8
CN(C)C(=O)COCc1nc2cc(Cl)c3c(c2o1)C1(CCCCC1)NC(=O)N3 [Example 176, 2-{5-Chloro-7-oxo-7,8-dihydro-6H-spiro[[1,3]oxazolo[5,4-f]quinazoline-9,1′-cyclohexane]-2-ylmethoxy}-N,N-dimethylacetamide]	>8
CN(C)C(=O)CCN(C)C(=O)c1nc2cc(Cl)c3c(c2o1)C1(CCCCC1)NC(=O)N3 [Example 189, 3-{1-5-Chloro-7-oxo-7,8-dihydro-6H-spiro[[1,3]oxazolo[5,4-f]quinazoline-9,1′-cyclohexane]-2-yl-N-methylformamido}-N,N-dimethylpropanamide]	>8
CN(C)C(=O)CNCc1nc2cc(F)c3c(c2o1)C1(CCCCC1)NC(=O)N3 [Example 225, 2-({5-Fluoro-7-oxo-7,8-dihydro-6H-spiro[[1,3]oxazolo[5,4-f]quinazoline-9,1′-cyclohexane]-2-ylmethyl}amino)-N,N-dimethylacetamide]	>8
N#Cc1ccc(CNC(=O)c2cc3cc(Cl)c4c(c3o2)C2(CCCCC2)NC(=O)N4)cc1 [Example 332, 5′-Chloro-N-[(4-cyanophenyl)methyl]-7′-oxo-7′,8′-dihydro-6′H-spiro[cyclohexane-1,9′-furo[2,3-f]quinazoline]-2′-carboxamide]	>8
O=C1Nc2c(Cl)cc3cc(C(=O)NCc4ccc(OC(F)F)cn4)oc3c2C2(CCCCC2)N1 [Example 334, 5′-Chloro-N-{[5-(difluoromethoxy)pyridin-2-yl]methyl}-7′-oxo-7′,8′-dihydro-6′H-spiro[cyclohexane-1,9′-furo[2,3-f]quinazoline]-2′-carboxamide]	>8
O=C1Nc2c(Cl)cc3cc(C(=O)NC4C[C@@H]5[C@H](C4)C5(F)F)oc3c2C2(CCCCC2)N1 (stereo partly drawn) [Example 336, 5′-Chloro-N-[(1R,5S)-6,6-difluorobicyclo[3.1.0]hexan-3-yl]-7′-oxo-7′,8′-dihydro-6′H-spiro[cyclohexane-1,9′-furo[2,3-f]quinazoline]-2′-carboxamide]	>8
O=C1Nc2c(Cl)cc3cc(C(=O)NCC(F)(F)F)oc3c2C2(CCCCC2)N1 [Example 378, 5′-Chloro-7′-oxo-N-(2,2,2-trifluoroethyl)-7′,8′-dihydro-6′H-spiro[cyclohexane-1,9′-furo[2,3-f]quinazoline]-2′-carboxamide]	>8
CCc1cc(CN(C)C(=O)c2cc3cc(Cl)c4c(c3o2)C2(CCCCC2)NC(=O)N4)on1 [Example 427, 5′-Chloro-N-[(3-ethyl-1,2-oxazol-5-yl)methyl]-N-methyl-7′-oxo-7′,8′-dihydro-6′H-spiro[cyclohexane-1,9′-furo[2,3-f]quinazoline]-2′-carboxamide]	>8
O=C1Nc2c(Cl)cc3cc(CNCCCN4CCCC4=O)oc3c2C2(CCCCC2)N1 [Example 492, 5′-Chloro-2′-({[3-(2-oxopyrrolidin-1-yl)propyl]amino}methyl)-7′,8′-dihydro-6′H-spiro[cyclohexane-1,9′-furo[2,3-f]quinazoline]-7′-one]	>8
CCN(Cc1cc2cc(Cl)c3c(c2o1)C1(CCCCC1)NC(=O)N3)C(C)C [Example 506, 5′-Chloro-2′-{[ethyl(propan-2-yl)amino]methyl}-7′,8′-dihydro-6′H-spiro[cyclohexane-1,9′-furo[2,3-f]quinazoline]-7′-one]	<6
O=C1Nc2c(Cl)cc3cc(CN4CCC(N5CCOCC5)CC4)oc3c2C2(CCCCC2)N1 [Example 518, 5′-Chloro-2′-{[4-(morpholin-4-yl)piperidin-1-yl]methyl}-7′,8′-dihydro-6′H-spiro[cyclohexane-1,9′-furo[2,3-f]quinazoline]-7′-one]	<6
CN(C)C1CCN(Cc2cc3cc(Cl)c4c(c3o2)C2(CCCCC2)NC(=O)N4)CC1 [Example 534, 5′-Chloro-2′-{[4-(dimethylamino)piperidin-1-yl]methyl}-7′,8′-dihydro-6′H-spiro[cyclohexane-1,9′-furo[2,3-f]quinazoline]-7′-one]	<6
O=C1Nc2c(Cl)cc3cc(CN4Cc5cccnc5C4)oc3c2C2(CCCCC2)N1 [Example 545, 5′-Chloro-2′-{5H,6H,7H-pyrrolo[3,4-b]pyridin-6-ylmethyl}-7′,8′-dihydro-6′H-spiro[cyclohexane-1,9′-furo[2,3-f]quinazoline]-7′-one]	>8
CN1CCC(N(C)Cc2cc3cc(Cl)c4c(c3o2)C2(CCCCC2)NC(=O)N4)CC1 [Example 562, 5′-Chloro-2′-{[methyl(1-methylpiperidin-4-yl)amino]methyl}-7′,8′-dihydro-6′H-spiro[cyclohexane-1,9′-furo[2,3-f]quinazoline]-7′-one]	<6
CC1(C)C2CN(Cc3cc4cc(Cl)c5c(c4o3)C3(CCCCC3)NC(=O)N5)CC21 (stereo not drawn) [Example 563, 5′-Chloro-2′-({6,6-dimethyl-3-azabicyclo[3.1.0]hexan-3-yl}methyl)-7′,8′-dihydro-6′H-spiro[cyclohexane-1,9′-furo[2,3-f]quinazoline]-7′-one]	<6

Each compound was assayed against T1, N-terminal truncated recombinant human PDE7B enzyme (assay: biochemical). Conditions: not given.

SMILES	IC50 [nM]
COCCN(C)C(=O)c1cc2cc(Cl)c3c(c2o1)C1(CCCCC1)NC(=O)N3 [Example 232, 5′-Chloro-N-(2-methoxyethyl)-N-methyl-7′-oxo-7′,8′-dihydro-6′H-spiro[cyclohexane-1,9′-furo[2,3-f]quinazoline]-2′-carboxamide]	10 to 100
CS(=O)(=O)CCNCc1cc2cc(Cl)c3c(c2o1)C1(CCCCC1)NC(=O)N3 [Example 482, 5′-Chloro-2′-{[(2-methanesulfonylethyl)amino]methyl}-7′,8′-dihydro-6′H-spiro[cyclohexane-1,9′-furo[2,3-f]quinazoline]-7′-one]	10 to 100
O=C1Nc2c(Cl)cc3cc(CN4CCN(C(=O)C5CCCO5)CC4)oc3c2C2(CCCCC2)N1 (stereo not drawn) [Example 489, 5′-Chloro-2′-{[4-(oxolane-2-carbonyl)piperazin-1-yl]methyl}-7′,8′-dihydro-6′H-spiro[cyclohexane-1,9′-furo[2,3-f]quinazoline]-7′-one]	100 to 1000
